Screen size: about 310,000 compounds; about 14,000 (4.5%) showed an effect of 50% or more. The effect is printed as a negative number. This is one part of the list.
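Further: peak tail current of the secondary pulse compared with the same well before compound.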

human ether-à-go-go-related gene (hERG) potassium channel, sequence (Q12809 whole entry, looked up): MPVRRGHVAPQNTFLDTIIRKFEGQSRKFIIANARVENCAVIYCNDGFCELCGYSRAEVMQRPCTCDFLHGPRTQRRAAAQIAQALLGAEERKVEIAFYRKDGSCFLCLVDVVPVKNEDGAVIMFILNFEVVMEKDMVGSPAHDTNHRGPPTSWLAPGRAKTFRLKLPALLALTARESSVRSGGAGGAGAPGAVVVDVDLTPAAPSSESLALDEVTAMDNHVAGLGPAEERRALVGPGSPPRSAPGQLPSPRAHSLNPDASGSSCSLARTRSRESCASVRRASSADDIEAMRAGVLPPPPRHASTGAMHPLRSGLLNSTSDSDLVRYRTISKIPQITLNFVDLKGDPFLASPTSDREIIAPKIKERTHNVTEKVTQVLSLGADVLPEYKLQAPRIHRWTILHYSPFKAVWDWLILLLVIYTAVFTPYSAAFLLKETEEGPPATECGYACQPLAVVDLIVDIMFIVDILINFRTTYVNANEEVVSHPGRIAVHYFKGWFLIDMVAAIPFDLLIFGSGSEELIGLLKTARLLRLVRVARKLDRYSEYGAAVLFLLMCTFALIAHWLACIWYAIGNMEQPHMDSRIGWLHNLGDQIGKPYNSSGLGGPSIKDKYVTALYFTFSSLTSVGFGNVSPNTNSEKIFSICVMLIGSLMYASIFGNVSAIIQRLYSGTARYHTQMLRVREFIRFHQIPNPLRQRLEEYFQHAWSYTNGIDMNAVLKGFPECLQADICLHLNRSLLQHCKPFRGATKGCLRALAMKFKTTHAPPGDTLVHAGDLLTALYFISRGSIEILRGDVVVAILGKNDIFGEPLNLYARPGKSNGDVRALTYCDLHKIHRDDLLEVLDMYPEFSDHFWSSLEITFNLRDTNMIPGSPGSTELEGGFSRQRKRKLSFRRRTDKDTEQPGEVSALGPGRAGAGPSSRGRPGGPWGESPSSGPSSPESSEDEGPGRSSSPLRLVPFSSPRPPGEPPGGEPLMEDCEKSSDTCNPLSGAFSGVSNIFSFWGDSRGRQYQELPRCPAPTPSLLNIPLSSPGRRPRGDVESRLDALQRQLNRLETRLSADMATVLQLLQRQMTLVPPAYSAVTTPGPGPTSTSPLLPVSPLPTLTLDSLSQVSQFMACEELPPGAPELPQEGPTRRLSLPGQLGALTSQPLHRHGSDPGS

The experiment concerns the target human ether-à-go-go-related gene (hERG) potassium channel (human, UniProt Q12809). In words: primary screen, population patch clamp on CHO cells stably expressing hERG.
On to `Cc1cccc(Nc2c(-c3ccc(O)cc3)nc3ncccn23)c1`, for which the “hERG current change (%, negative = inhibition) at 10uM” value was -25.5%.
For `O=C(CSc1nc2ccccc2c(=O)n1Cc1ccco1)c1ccc(F)cc1`, the “hERG current change (%, negative = inhibition) at 10uM” value is reported as 9.22%.
Consider `COc1cccc(NC(=O)CN(C)C(=O)c2cc(C3CC3)nn2-c2ccccc2)c1`, for which the “hERG current change (%, negative = inhibition) at 10uM” value is given as -23.1%.
On to `C=CCNc1nc(C(=O)OCC(=O)c2ccccc2)cs1`, for which the “hERG current change (%, negative = inhibition) at 10uM” value amounted to 13.6%.
The same measure for `Cc1[nH]c2ccccc2c1C(O)CN1CCN(c2cccc(C(F)(F)F)c2)CC1` (stereo not drawn): -17.8%; for `Cc1ccc(NC(=O)COC(=O)CNC(=O)c2ccco2)cc1`: 6.01%.
The same measure for `Cc1ccc2[nH]c(O)c(N=NC(=O)CCc3ccccc3)c2c1Br`: 10.5%; for `O=C(c1ccccc1)N1CCc2ccccc21`: -2.69%.
The same measure for `COCCCNc1nc2cc(OC)c(OC)cc2c2nc(-c3ccccc3)nn12`: 24.7%; for `Cc1ccc(-c2csc3ncn(CC(=O)N4CCOCC4)c(=O)c23)cc1`: -5.93%; for `CCOc1ccc(CN2CCN(Cc3ccsc3)C(CCO)C2)cc1CO` (stereo not drawn): -39.4%.
Consider `CN(CCC#N)C(=S)Nc1ccc(Oc2ccccc2)cc1`, for which the “hERG current change (%, negative = inhibition) at 10uM” value is listed as -28.6%.
The same measure for `CCc1nnc(NC(=O)CCC(=O)O)s1`: -1.7%; for `O=C(CNC(=O)[C@@H]1Cc2ccccc2CN1)Nc1ccc2c(c1)OCO2`: 4.64%; for `O=C1c2ccccc2C(=O)N1CCC1=CCCCC1`: 8.04%.
The same measure for `CCOC(=O)c1ccc(-n2c(-c3ccco3)nc3ccccc3c2=O)cc1`: -2.14%; for `CSc1nc(C)cc(OCC(=O)N/N=C/c2ccccc2O)n1`: 11.9%.
The same measure for `CCOc1cc(NC(=S)NCCCN2CCOCC2)c(OCC)cc1NC(=O)C1CCCCC1`: -11.2%.
Turning to `C/C(=N\N1C(=O)c2ccccc2C1=O)c1cccc([N+](=O)[O-])c1`, the “hERG current change (%, negative = inhibition) at 10uM” value turned out to be 4.83%.
For `O=C(Nc1ccc2c(c1)OCO2)C1CCN(Cc2cc3c(cc2O)OCO3)CC1` the value was -33.5%.
On to `Cc1noc(C(=O)Nc2ccccc2C(F)(F)F)c1Cl`, for which the “hERG current change (%, negative = inhibition) at 10uM” value was -5.43%.
In the case of `Fc1ccc(CNn2cnnc2SCc2ccc(F)cc2)cc1`, the “hERG current change (%, negative = inhibition) at 10uM” value is on record as -22.9%.
The same measure for `CC(=O)c1sc(NC(=O)c2c(F)cccc2F)nc1C`: 1.74%.
Take `CN1CCN(S(=O)(=O)c2cccc(C(=O)Nc3sccc3C#N)c2)CC1`: the “hERG current change (%, negative = inhibition) at 10uM” value is -5.03%.
The same measure for `COC/C=C/C1=CC2=CC(=O)C(C)(OC(=O)c3cnc4ccccc4n3)C(=O)C2=CN1CCc1c[nH]c2ccccc12` (stereo not drawn): 16.5%; for `Cc1cc(NC(=O)C2CCCC2)nc2c1c(=O)oc1ccccc12`: 5.43%; for `O=C(CSc1nnc(COc2ccc3c(c2)CCCC3)o1)Nc1ccc(F)cc1`: 10.2%.
The same measure for `O=C1NC(=O)N(c2ccc3c(c2)OCO3)C(=O)/C1=C/c1ccc(N2CCCCC2)o1`: 9.86%; for `O=C(NC(=S)Nc1ccc(S(=O)(=O)Nc2nccs2)cc1)C1CC1`: 8.94%; for `Cc1ccc(C)c(Cn2c(CN(C)Cc3ccccc3)nc3c2c(=O)n(C)c(=O)n3C)c1`: -51.3%.
With `CCCCn1c(N)c(N(CCOC)C(=O)CN2C(=O)c3ccccc3C2=O)c(=O)[nH]c1=O`, the “hERG current change (%, negative = inhibition) at 10uM” value is given as -5.53%.
For `O=C(Nc1ccc(F)cc1)c1ccc(-n2ccnc2)nc1` the value was -24.5%.
For `N=c1c(C(=O)NC2CCCC2)cc2c(=O)n3ccccc3nc2n1CCN1CCOCC1` the value was -91.9%.
The same measure for `COc1ccc(/C=N/NC(=O)C(C)n2cnc3ccccc3c2=O)cc1` (stereo not drawn): -47.9%; for `CCCc1nnc(NC(=O)c2cc(OC)cc(OC)c2)s1`: -4.25%.
Take `C=CCSc1ncc(CO)n1Cc1ccccc1`: the “hERG current change (%, negative = inhibition) at 10uM” value is listed as -5.58%.
For `COCCCC1CCN(C(=O)C2CCC(=O)N(Cc3cccc(F)c3)C2)CC1` (stereo not drawn) the value was 1.36%; for `Nc1nonc1C(=O)NCCNC(=O)c1ccc(Cl)c(Cl)c1`, -11.1%.
For `CC(=O)N1CCN(C(=O)c2cc(S(=O)(=O)N3CCCCC3)ccc2Cl)CC1` the value was 9.6%.
For `C=CC[N+](C)(C)CCN1C(=O)C2C(c3ccccc3)C=CC(c3ccccc3)C2C1=O.[Br-]` (stereo not drawn) the value was 7.96%; for `Cc1ccc(NC(=O)CSCC(=O)NCCc2ccccc2)cc1`, 12.8%; for `Cc1[nH]c(=O)[nH]c(=O)c1/C=N\NC(=O)CCc1ccc(OC(C)C)cc1`, 16.8%.
Consider `CC(=O)N1CCN(Cc2ccc(Br)s2)CC1`, for which the “hERG current change (%, negative = inhibition) at 10uM” value is -2.46%.
The same measure for `CCN(CC)c1ccc(NC(=O)CN(C)Cc2cccs2)cc1`: 6.07%; for `CCc1c(C)sc2nc(C(C)C)nc(SCC(=O)N3CCc4ccccc4C3)c12`: -5.93%.

These data come from publication PMC4336329 (PLoS ONE, 2015).
